B1: LINE1-mini (parent)
chain: GGCAGAGCUCAACACAGCGUGGCAAAGUGGCUGUGGCUAGACUGCC

Read counts are not given, so values of variants with three or more changes are uncertain.

Variants of B1 are the subject of this data set. In words: self-cleavage, relative activity (ratio to wild type); higher = more cleavage; in vitro, sequencing; the parent is a self-cleaving ribozyme.
Turning to A16C G30C U43C, the self-cleavage came out at 0.36.

A16G G19C C46A: the self-cleavage amounted to 0.67.

Turning to A16U C23A C42G, the self-cleavage is 0.05.

Regarding A16U C18G C31U C37A G44A, the self-cleavage was determined as 0.07.

With A16U G27C G30C, the self-cleavage was 0.55.

Consider A16C U34G U43C C46A, for which the self-cleavage was 0.02.

On to A16G G29A G30A C31U, for which the self-cleavage was found to be 0.08.

For A16G G29A U34G, the self-cleavage was determined as 0.07.

Turning to A16U C23U G27A C42U, the self-cleavage came out at 0.34.

As for A16C G33U G36U, the self-cleavage was determined as 0.03.

As to A16G G19U U28G, the self-cleavage worked out at 0.95.

For the variant A16G U20A C46A, the self-cleavage amounted to 0.36.

As for A16U A26U G44U, the self-cleavage was determined as 0.04.

As to A16U C23A A24U, the self-cleavage was 0.22.

With G17A A26U G27A, the self-cleavage is 0.1.

Regarding A16U G17C C45A, the self-cleavage came to 0.04.

For the variant A16C G22U C31U G35U, the self-cleavage came out at 0.

For A16U A39G U43C, the self-cleavage was found to be 0.02.

Consider A16G A25C U32G, for which the self-cleavage amounted to 0.01.

As for A16G U32C C42A G44A, the self-cleavage came to 0.02.

As for A16C U20C C37A A41U G44C C45A, the self-cleavage was found to be 0.08.

On to A16C G27U C37U, for which the self-cleavage amounted to 0.37.

As for A16U C18U G33C G36C C37A, the self-cleavage was found to be 0.01.

In the case of A16C G27C G36U, the self-cleavage was found to be 0.05.

Consider A16U C18A U38A, for which the self-cleavage worked out at 0.07.

Consider A16U C31G G35U, for which the self-cleavage turned out to be 0.02.

Regarding A16G C23U G40C, the self-cleavage stood at 0.07.

As to A16G G29A C31A, the self-cleavage came to 0.01.

Consider A16G G22U G29U, for which the self-cleavage was found to be 0.04.

As for A16U C18G G36C A39G, the self-cleavage was found to be 0.02.

Regarding A16U G19C G40C, the self-cleavage was determined as 0.03.

As to A16C G30A C37G, the self-cleavage came out at 0.01.

On to A16U U32G G35U, for which the self-cleavage came to 0.06.

On to A16U A26G C45A, for which the self-cleavage worked out at 0.37.

In the case of A16U A24U C42A C45A, the self-cleavage was 0.01.

For A16C U34G G44U, the self-cleavage stood at 0.03.

For G17A C31U G40U, the self-cleavage stood at 0.03.

In the case of A16U A24U U38G C45U, the self-cleavage was found to be 0.02.

In the case of A16U G19A G22U G29C C31G G35U, the self-cleavage was determined as 0.01.

With A16U C31A C46A, the self-cleavage stood at 0.01.

As to A16U G27U G30C A39U C46U, the self-cleavage was 1.12.

As for A16G U20G G30A, the self-cleavage was determined as 0.02.

As to A16G G17U A26C A39G C45G, the self-cleavage came to 0.06.

With A16U A39G C46A, the self-cleavage was 0.

For the variant A16C G27U G30U U34A, the self-cleavage is 0.07.

A16C U38A A41U: the self-cleavage was 0.03.

In the case of A16C G22U C31U G44U, the self-cleavage came to 0.04.

In the case of A16U G30U G40U, the self-cleavage was 0.01.

In the case of A16U C31G C46A, the self-cleavage worked out at 0.06.

For A16U U28C G29U, the self-cleavage was 0.41.

Regarding A16G G40U U43A, the self-cleavage stood at 0.39.

For the variant A16U U32G C45A, the self-cleavage came to 0.08.

Take A16G C23A A25C U43C: the self-cleavage is 0.01.

Turning to A16G U34G C46U, the self-cleavage was found to be 0.

For A16G G22C C31U, the self-cleavage is 0.02.

As for A16G G19C G40A, the self-cleavage was found to be 0.02.

As to G17A C23A A24C U34C G36A, the self-cleavage was determined as 0.03.

Regarding A16G G30C G40A, the self-cleavage turned out to be 0.01.

Consider G17A A25G U38G, for which the self-cleavage is 0.01.

Regarding A16U G19U C42A, the self-cleavage came out at 0.09.

Take A16U U28C A41U: the self-cleavage stood at 0.04.

For A16U C18A G19A, the self-cleavage was 0.06.

For A16G G21U A24U C31U G35A G36A, the self-cleavage came out at 0.02.

On to A16G U38A C46G, for which the self-cleavage was 0.37.

A16U G27A U28G G36C G40U: the self-cleavage turned out to be 0.07.

For the variant A16G U34G C42G, the self-cleavage stood at 0.03.

With A16U C18U G22C G35C, the self-cleavage turned out to be 0.03.

For A16U G35C G36U, the self-cleavage came out at 0.07.

Regarding G17A A24U U28G G44A, the self-cleavage came out at 0.01.

Take A16G G21C A41G: the self-cleavage turned out to be 0.02.

Turning to A16C G30A G33C, the self-cleavage stood at 0.02.

With A16G G30U C31U C45G C46G, the self-cleavage came out at 0.03.

Turning to A16G G27U U38C, the self-cleavage is 0.01.

Take A16G G27U U38A: the self-cleavage is 0.24.

On to G17A C23A U34G G44C, for which the self-cleavage worked out at 0.

For G17A A26G G33A, the self-cleavage is 0.01.

Take A16G G17A G33C: the self-cleavage came out at 0.01.

Take G17A C31A A39C: the self-cleavage was 0.01.

As to G17A A24G A39G, the self-cleavage came out at 0.01.

G17A C18U G29U U43C: the self-cleavage came out at 0.01.

Consider A16C G22U U28G C31U, for which the self-cleavage was found to be 0.02.

In the case of A16G U20G G33U, the self-cleavage came out at 0.01.

Turning to A16G C18A G21U C46G, the self-cleavage turned out to be 0.17.

Take A16U G17C C18A: the self-cleavage is 0.07.

On to A16G C37U A41G, for which the self-cleavage stood at 0.02.

Take A16C U34G A41G: the self-cleavage was determined as 0.01.

Consider A16U G19A G21U C31U, for which the self-cleavage stood at 0.07.

A16U G19C C46A: the self-cleavage was determined as 0.2.

G17A C18A G30C: the self-cleavage was determined as 0.46.

For the variant A16G G29C C31A C42G, the self-cleavage came out at 0.01.

In the case of A16U A26C G27U, the self-cleavage is 0.1.

Regarding A16G C18G G22C C23A G30U C31A, the self-cleavage was 0.02.

In the case of G17A C31G G35C, the self-cleavage came out at 0.03.

Turning to A16U G29A U38A A41C C42U, the self-cleavage came out at 0.03.

As for A16G A39U C42U, the self-cleavage was determined as 0.

Consider A16C U28A G35C, for which the self-cleavage was 0.01.

In the case of A16U U28A G30U C31G, the self-cleavage is 0.02.

For the variant A16U G40U A41G, the self-cleavage amounted to 0.11.

In the case of A16G G27U U28A G40C, the self-cleavage worked out at 0.09.

A16U G19A G21U G29C G30U G33U U43C: the self-cleavage turned out to be 0.01.

As for A16G U20G G44U C45A, the self-cleavage worked out at 0.05.

Regarding A16U C18U U32C G40A G44A, the self-cleavage turned out to be 0.04.

For A16G A25G U38C, the self-cleavage turned out to be 0.01.

As for A16U A26U U43G C46A, the self-cleavage was 0.02.

Turning to A16G U28C U32G, the self-cleavage turned out to be 0.06.

With A16U G29A G36A C37G, the self-cleavage was 0.02.

For A16U G27C G29U C31A, the self-cleavage is 0.4.

Turning to A16U C37A U38G C42A, the self-cleavage was 0.

Take A16G G27C C42G: the self-cleavage amounted to 0.03.

For the variant A16G G22U G33U, the self-cleavage was 0.09.

For the variant G17A C23G G35C A41C, the self-cleavage turned out to be 0.11.

Take A16G G17A C31A: the self-cleavage worked out at 0.

As for A16U A25C G44U, the self-cleavage came to 0.

G17A A26U G27C G36C: the self-cleavage amounted to 0.07.

Take A16U G30U G33A C37U: the self-cleavage came to 0.13.

Take A16G A26U G30U U34A: the self-cleavage stood at 0.09.

For A16G G36U G40C, the self-cleavage is 0.03.

Take A16G U34G C42A G44A: the self-cleavage turned out to be 0.02.

For A16C U32C U38A, the self-cleavage is 0.01.

On to G17A A26C A41C, for which the self-cleavage came out at 0.01.

As for A16U G30A C45A, the self-cleavage stood at 0.25.

Consider A16G G22C A39C, for which the self-cleavage worked out at 0.01.

In the case of A16G G19U C31U G44A, the self-cleavage came to 0.03.

As for A16G C23U G27C, the self-cleavage worked out at 0.21.

With A16C U20A C46A, the self-cleavage amounted to 0.07.

With A16C G27U U28G, the self-cleavage was determined as 0.1.

Regarding G17A C37U A41C, the self-cleavage turned out to be 0.05.

Take A16C G22U C46A: the self-cleavage stood at 0.05.

Consider A16G U32A U43G G44U, for which the self-cleavage was found to be 0.02.

In the case of A16U C37U G44U, the self-cleavage is 0.03.

Consider A16U G27U G36C A41C, for which the self-cleavage is 0.02.

On to A16U G17A A25U U38C, for which the self-cleavage turned out to be 0.07.

Turning to A16U U20C G33A, the self-cleavage stood at 0.

Take A16G U20G C42U: the self-cleavage came to 0.03.

Consider A16U G29U U34A, for which the self-cleavage was 0.11.

Take A16C G27C G44U: the self-cleavage was 0.02.

Turning to A16U G36A C46U, the self-cleavage came out at 0.08.

G17A C18A G35C U38G: the self-cleavage came out at 0.02.

Consider A16G A26G C31A A41G C45U, for which the self-cleavage turned out to be 0.01.

As for A16U C18U A24G G30A G40C, the self-cleavage came to 0.04.

Consider A16C U28C U34A, for which the self-cleavage turned out to be 0.01.

In the case of A16C G22U C31U, the self-cleavage was 0.01.

As for A16U G22A A24C U34A, the self-cleavage was 0.02.

A16G G21U U34A: the self-cleavage was 0.

Consider A16G G19A A25C G33U, for which the self-cleavage is 0.01.

As for A16U G29U U43A, the self-cleavage amounted to 0.07.

With A16U G30A U38C, the self-cleavage turned out to be 0.13.

Regarding A16U G17A G30C G35A, the self-cleavage stood at 0.1.

As for A16U G21U U28G, the self-cleavage stood at 0.04.

Take A16G G19A C45U: the self-cleavage amounted to 0.17.

With A16C U20A C31G, the self-cleavage is 0.03.

For the variant G17A C18A U38A, the self-cleavage came out at 0.04.

In the case of A16U A26C G29A G30A C31A U34A, the self-cleavage stood at 0.01.

Turning to G17A C23A G40C C46G, the self-cleavage came to 0.02.

For the variant A16U U20A G21C A25G G40A, the self-cleavage is 0.01.

For A16G A25G G27U, the self-cleavage stood at 0.06.

Turning to A16U C18A G33U C45G, the self-cleavage is 0.04.

With A16G C18U G30A G36A A39C C45A, the self-cleavage is 0.02.

Consider A16U C23G C37A A41U U43A, for which the self-cleavage was 0.28.

On to A16U G21U G36A C46G, for which the self-cleavage is 0.08.

Take G17A C18A G36A: the self-cleavage was 0.05.

Consider A16U A26U G33A, for which the self-cleavage turned out to be 0.05.

In the case of A16C U20A A25G G36C A41U, the self-cleavage was 0.02.

As to A16G G17U G22C A24U A41G, the self-cleavage is 0.03.

As to G17A C31G U38C, the self-cleavage was 0.1.

In the case of A16G C31A G33A, the self-cleavage came to 0.

Take A16U G17A C23U G27C: the self-cleavage was 0.21.
